PubChem BioAssay AID1159614 (National Center for Advancing Translational Sciences (NCATS), 2016)
About 65 (0.1%) of roughly 45,000 compounds were called active. Calls follow the shape of the dose curve; as a rule, active = well fitted activation curve with a large enough effect; inconclusive = small, poorly fitted or top-dose-only effect; inactive = no such curve, though single readings can be large or run the other way. The list shows a part of the results.

Target: Galactocerebrosidase (Homo sapiens) (UniProt P54803)
UniProt P54803, sequence (P54803 whole entry, looked up): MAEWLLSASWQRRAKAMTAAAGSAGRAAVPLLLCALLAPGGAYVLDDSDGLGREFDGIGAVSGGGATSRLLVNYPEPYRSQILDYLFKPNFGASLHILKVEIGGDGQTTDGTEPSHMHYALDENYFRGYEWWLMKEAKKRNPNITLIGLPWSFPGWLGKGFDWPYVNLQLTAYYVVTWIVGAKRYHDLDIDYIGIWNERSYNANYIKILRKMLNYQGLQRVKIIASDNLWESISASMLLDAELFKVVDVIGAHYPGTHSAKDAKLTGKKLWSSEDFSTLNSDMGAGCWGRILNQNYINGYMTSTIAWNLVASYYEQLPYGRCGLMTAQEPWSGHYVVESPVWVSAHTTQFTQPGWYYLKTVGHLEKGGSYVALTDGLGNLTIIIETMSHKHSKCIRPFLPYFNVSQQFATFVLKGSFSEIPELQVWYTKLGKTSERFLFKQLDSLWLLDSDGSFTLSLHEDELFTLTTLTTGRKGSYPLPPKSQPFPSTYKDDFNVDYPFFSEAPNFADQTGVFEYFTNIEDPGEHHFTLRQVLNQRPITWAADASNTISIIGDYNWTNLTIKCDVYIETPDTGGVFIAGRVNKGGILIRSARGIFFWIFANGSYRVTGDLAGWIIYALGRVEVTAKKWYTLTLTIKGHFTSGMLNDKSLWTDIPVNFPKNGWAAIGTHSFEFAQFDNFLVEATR
Assay: A Novel Cell-Based Assay to Identify Small Molecules for B -Galactocerebrosidase; also: 0% is about no effect; nearly all actives have a fitted effect of over 65% in size
Details: 145M-Twi-hGALC-G270D cells (Twitcher mouse brain line with human GALC G270D), HMU-beta-Gal fluorescence, 48 h; series mostly up to 57.5 µM; activation: at the top concentration
Outline: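 Live 145M-Twi cells (Twitcher mouse brain-derived, GALC-null) stably expressing human GALC-G270D, with a wild-type GALC line, were compound-treated. Residual GALC activity was then read as fluorescence from 0.1 mM final HMU-β-gal at pH 5.2; higher signal means activation.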

activation, inactive:
Cc1ccc(Nc2cc(C)nc3nncn23)c(C)c1 -11.2%
CCOC(=O)c1c(NC(=O)c2ccc(F)cc2)sc2c1CCC(CC)C2 (configuration not stated) -10.3%
CN1C(=O)c2[nH]nc(-c3ccc(F)cc3)c2C1c1cccc(O)c1 (configuration not stated) -0.618%
CC(C)CCn1c(SCc2cccc(F)c2)nc2ccsc2c1=O 2.02%
Cc1cc(C)cc(Nc2nc3cc(Cl)c(Cl)cc3nc2-n2nc(C)cc2C)c1 -9.16%
Cn1cc(-c2cc3n(n2)CCC(=O)N3CCCC(=O)NCc2ccccc2Cl)c2ccccc21 -6.2%
COc1ccc2c(c1)-c1nc(NC(=O)c3cc(OC)c(OC)c(OC)c3)sc1CC2 -19.9%
CN1C(=O)C2(c3ccccc31)N(c1ccc(Br)cc1)C(=O)CS2(=O)=O (configuration not stated) -21.3%
O=C(C1CCC(Cn2c(=O)c3sccc3n(Cc3ccc(F)cc3)c2=O)CC1)N1CCOCC1 (configuration not stated) -7.14%
O=c1[nH]c(C2CCCN(S(=O)(=O)c3ccccc3)C2)nc2c1nnn2Cc1ccc(OC(F)(F)F)cc1 (configuration not stated) -1.92%
CCc1ccc2oc(C(=O)NCc3ccccc3)cc(=O)c2c1 -31.9%
Cc1cc(C)cc(C(=O)N2CC(=O)Nc3ccc(Br)cc3C2c2ccccc2)c1 (configuration not stated) -25.4%
CCCCOc1ccc(C2C(=O)N(C3CCCCC3)CC(=O)N2CCCC)cc1 (configuration not stated) -10.7%
Cc1ccc(NC(=O)Cn2c(-c3nonc3N)nc3ccccc32)c(Br)c1 3.16%
CCOC(=O)c1noc2ncn(CC(=O)Nc3ccccc3OC)c(=O)c12 -3.7%
COc1cccc(CNC(=O)CCc2c(C)c3ccc(O)c(C)c3oc2=O)c1 -33.7%
CCCCN(CC)CCCNC(=O)c1ccc2c(c1)NC(=O)CN2C -9.33%
Cc1ccc(-n2ncc(C(=O)NCCCN3CCc4ccccc4C3)c2C2CCN(C(=O)OC(C)(C)C)CC2)c(C)c1 -5.64%
COc1ccc(-n2c(SCc3ccccc3)nc3c([nH]c4ccccc43)c2=O)cc1 -1.89%
COc1cccc(CNC(=O)Cn2nc(N3CCN(c4ccccc4OC)CC3)ccc2=O)c1 1.52%
CCOc1ccc(-n2c(=O)c3c(C)c(C)sc3n(Cc3ccccc3C)c2=O)cc1 -8.5%
COc1ccc(C)cc1NC(=O)CN1C(=O)COc2ccc(S(=O)(=O)N3CCC(C)CC3)cc21 -11.9%
Cc1c(Cl)cccc1NC(=O)C(C)n1c(=O)cc(C)c2c(C)nn(-c3ccccc3)c21 (configuration not stated) -7.17%
Cc1nc2nc(SCC(=O)Nc3ccccc3Cl)nn2c(C)c1Cc1ccccc1 3.7%
CN(C)CCCNC(=O)C(=O)NCC(c1ccc2c(c1)OCO2)N1CCOCC1 (configuration not stated) -8.48%
COc1cc2c(cc1OC)C(COc1ccc(F)cc1)N(C(=O)c1cccc(F)c1)CC2 (configuration not stated) -13.3%
CN1CCN(C(=O)Cn2ncc3c4ccccc4n(Cc4ccc(F)cc4)c3c2=O)CC1 -16.3%
O=C(c1ccc(Br)cc1)N(Cc1cccs1)c1ccc(F)cc1 -6.74%
COc1cc(OC)c(NC(=O)c2cn(C3CCCC3)c(=O)c3c2c2ccccc2n3C)cc1Cl -10.8%
COc1ccc(-c2cnc(C)o2)cc1S(=O)(=O)Nc1ccc(F)cc1F -19.9%
Cc1cc(C)c(S(=O)(=O)Nc2ccc3oc4c(c3c2)C(=O)CC(C)(C)C4)cc1C -44.6%
Cc1noc(/C=C/c2cccs2)c1S(=O)(=O)N1CCC(C(=O)NCc2ccc(Cl)cc2)CC1 -11.9%
COc1cccc(C(=O)Nc2ccccc2OCc2cc(=O)n3ccccc3n2)c1 -5.16%
Cc1cccn2c(=O)c(/C=C(\C#N)c3nc4ccccc4s3)c(Oc3ccc(F)cc3)nc12 -23.9%
Cc1cc(N(CCO)Cc2ccccc2)n2nc(-c3ccc(C(C)(C)C)cc3)nc2n1 -6.66%
CCOCCn1ccc2c(OCC(=O)Nc3cccc([N+](=O)[O-])c3)cccc2c1=O -19.7%
COc1ccc(N(Cc2nnc3n2CCCCC3)C(=O)Nc2cccc(C)c2)cc1Cl 4.84%
COc1ccccc1CN1CCNC(=O)C1=O -11.4%
O=C(Cn1ncc2c3ccccc3n(Cc3ccccc3)c2c1=O)NC1CCCCCC1 -13.5%
CCOc1ccc(CN2CCc3nc(N4CCN(c5ccccn5)CC4)ncc3C2)cc1OC -7.15%
COc1ccc(NC(=O)C(CC(C)C)NC(=O)C2CCCCC2)cc1 (configuration not stated) -13.1%
COc1ccccc1NC(=O)Cn1c(=O)n(-c2cccc(C)c2)c(=O)c2c1c1cc(C)ccc1n2C -0.828%
COc1ccc(-c2coc3c2c(C)cc2oc(=O)c(CC(=O)O)c(C)c23)cc1 -21.5%
Cn1c(=O)c2cc(C(=O)NC3CCCCCC3)sc2c2ccccc21 2.14%
CCn1c(=N)n(CC(O)COc2ccccc2)c2ccccc21 (configuration not stated) -6.81%
CCCc1cnc2c(c1SCc1cccc(F)c1)c(=O)n(C)c(=O)n2C -14.5%
CCCc1noc(-c2ccc(NCc3ccc(C)cc3)c([N+](=O)[O-])c2)n1 -15.7%
Cc1ccc(NC(=O)Cn2c(=O)n(Cc3ccc4c(c3)OCO4)c(=O)c3ccccc32)cc1 -9.5%
COc1ccc(-c2cn3c(n2)sc2cc(C(=O)NCc4cccc(F)c4)ccc23)cc1 -14.7%
Cc1ccc(C(=O)c2cn(Cc3ccccc3C)c3nc(C)ccc3c2=O)cc1 -13.3%
Cc1ccccc1-c1cc2nccc(-c3cc(Cl)ccc3O)n2n1 -19.1%
Cc1ccc(NC(=O)CN2C(=O)COc3ccc(S(=O)(=O)NC4CCCC4)cc32)c(Cl)c1 -3.47%
Cc1nc(C)c(CCNS(=O)(=O)c2ccc(F)cc2)s1 -31.3%
CCCCNC(=O)CSc1nc2cc3c(cc2c(=O)n1CCCCCC(=O)NCc1ccc(OC)cc1)OCO3 -10.2%
CCc1ccc(Nc2nnc(-n3nc(C)cc3C)c3ccccc23)cc1 -20.1%
COc1ccc(CNC(=O)c2cnc3sc(N4CCCC4)nn3c2=O)c(OC)c1 -9.2%
COc1ccc(N(Cc2cccs2)C(=O)Nc2cccc(Cl)c2)cc1 -1.58%
CCOC(=O)C1CCCN(S(=O)(=O)c2ccc3c(c2)oc(=O)n3C)C1 (configuration not stated) -1.37%
COc1ccc(C2CC(=O)N(CC(=O)Nc3ccc(C)c(Cl)c3)c3ccccc3S2)cc1OC (configuration not stated) -2.24%
COc1ccc(-c2nc(SCC(=O)NC3CCCC3)c(-c3ccc(C)cc3)[nH]2)cc1OC -42.5%
CCOc1ccc(NC(=O)C(=O)NCC(c2cccnc2)N2CCc3ccccc32)cc1 (configuration not stated) -15.5%
COc1cccc(NC(=O)CCc2c(C)nc3ncnn3c2C)c1 -16.5%
